Measured values taken from PubChem BioAssay AID504832 (National Center for Advancing Translational Sciences (NCATS), 2011).
In all, about 310,000 compounds went through this assay and about 18,000 (5.8%) were called active. The shares of active, inactive and inconclusive entries below differ from those in the screen. The call rests on the fitted dose curve; in most records, active means well fitted inhibition curve with a large enough effect; inconclusive means small, poorly fitted or top-dose-only effect, or another doubt; inactive means no such curve, though single readings can be large or run the other way. Potencies of inconclusive entries are left out as doubtful fits.
Potency means the concentration at half of the fitted maximal effect; tags describe the fitted curve by direction and shape.

Assay: Primary qHTS for delayed death inhibitors of the malarial parasite plastid, 48 hour incubation
Settings: P. falciparum luciferase growth in erythrocytes; series mostly up to 28.7 µM
How it was run: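 In quantitative HTS format, infected erythrocytes bearing luciferase-reporter parasites were treated for a single generation at 37 C. Luminescence after adding detection reagent served as the growth measure.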
With `Cc1ccc(NC(=O)CSc2ccc(-c3ccccn3)nn2)c(C)c1` the Potency was inconclusive [inhibitor, partial curve, poor fit]. In the case of `COc1ccc2nc(NNC(=O)c3cc(=O)c4ccccc4o3)sc2c1`, the Potency was inconclusive [inhibitor, partial curve, poor fit]. With `Cc1cccc[n+]1C1C(c2ccccc2)C(C#N)=C(C(=C=[N-])C#N)NC1(O)C1CC1` (stereo not given) the Potency was inconclusive [inhibitor, partial curve]. With `Cc1nc(NC(=O)c2csc3ccccc23)sc1C` the Potency was “inactive”. In the case of `CNCc1cc(Br)c(OCC(=O)Nc2ccccc2OC)c(OC)c1`, the Potency was inconclusive [inhibitor, single point]. In the case of `O=C(C1CCN(S(=O)(=O)c2ccc(Cl)c(C(F)(F)F)c2)CC1)N1CCC1`, the Potency was inconclusive [inhibitor, partial curve, poor fit]. With `O=C(Cn1cnc2c(nnn2Cc2ccccc2)c1=O)N1CCCc2ccccc21` the Potency was inconclusive [inhibitor, partial curve]. For `COc1ccc(S(=O)(=O)N2CCN(c3ccccc3)CC2)cc1C(=O)N1CCCC1`, the Potency was inconclusive [inhibitor, single point]. In the case of `CC(CN1C(C)CCCC1C)OC(=O)c1cccc(Br)c1` (stereo not given), the Potency was “inactive”. With `CCCCNC(=O)CN1CCC2(O)CCCCC2C1c1ccccc1OC` (stereo not given) the Potency was inconclusive [inhibitor, partial curve]. For `Cc1cccc(NC(=O)CNC(=O)Cc2ccc3c(c2)OCCO3)c1C`, the Potency was inconclusive [inhibitor, partial curve, poor fit]. In the case of `Cc1cc(-n2c(C)cc(C(=O)COc3ccccc3[N+](=O)[O-])c2C)no1`, the Potency was inconclusive [inhibitor, single point]. With `CCOc1ncccc1C(=O)Nc1cc(S(=O)(=O)N2CCOCC2)ccc1N1CCCC1` the Potency was inconclusive [inhibitor, single point]. In the case of `COc1ccc2c(CC(=O)NCc3cccs3)coc2c1`, the Potency was “inactive”. With `CCc1cc(/C(Cc2ccccn2)=N\Nc2ccccc2)c(O)cc1O` the Potency was “inactive”. For `O=C(NCc1ccccc1)c1onc(CSc2ccccc2)c1C(=O)NCC1CC1`, the Potency was inconclusive [inhibitor, single point]. With `COc1cc(CNC(=O)C2CCC(=O)N(C3CCCCCC3)C2)cc(OC)c1` (stereo not given) the Potency was “inactive”. In the case of `Cc1ccc(-c2nnn(CC(=O)N(c3cccc(F)c3)C(C(=O)NC(C)(C)C)c3ccco3)n2)o1` (stereo not given), the Potency was inconclusive [inhibitor, single point]. In the case of `O=C(Cn1cnc2ccccc2c1=O)Nc1nnc(SCc2ccc(Cl)cc2)s1`, the Potency was “inactive”. With `Cc1ccc(S(=O)(=O)c2nc(S(C)(=O)=O)sc2NCC2CCCO2)cc1` (stereo not given) the Potency was inconclusive [inhibitor, single point]. In the case of `CCn1c(=O)n(CC)c2cc(N3CCCC3)c(NC(=O)c3cc(Cl)ccc3OC)cc21`, the Potency was inconclusive [inhibitor, partial curve]. In the case of `Cc1onc(-c2ccccc2)c1C(=O)Nc1ccc2c(c1)OCCO2`, the Potency was inconclusive [inhibitor, single point]. For `COC(=O)c1ccc(C23CC4(C2)[C@H](CN(Cc2ccc(C(F)(F)F)cc2)[C@@H]4c2ccccc2)C3c2ccccc2)cc1` (stereo not given in full), the Potency was inconclusive [inhibitor, single point]. For `COC1(C)CC2C(CC1OC(=O)c1cc([N+](=O)[O-])cc([N+](=O)[O-])c1)C2(C)C` (stereo not given), the Potency was inconclusive [inhibitor, single point]. With `CN(C)c1ccc(C(C(=O)NCC2CCCO2)N(C(=O)c2snc(C(N)=O)c2N)c2ccc3c(c2)OCO3)cc1` (stereo not given) the Potency was inconclusive [inhibitor, full curve]. For `CCN(Cc1nc(-c2ccc(Cl)cc2)no1)CC1CCCO1` (stereo not given), the Potency was “inactive”. In the case of `CCOC(=O)C1CCN(C(=O)c2cccc(S(=O)(=O)Nc3ccc(C)cc3C)c2)CC1`, the Potency was inconclusive [inhibitor, single point]. In the case of `CCOC(=O)c1c(C)[nH]c(C)c1C(=O)COC(=O)c1ccc(OC)c(OC)c1`, the Potency was inconclusive [inhibitor, partial curve, poor fit]. In the case of `COc1ccc(Br)cc1/C=C/c1ccc2cccc(O)c2n1`, the Potency was active: 2.08 µM. For `CC(Nc1cc(N2CCOCC2)ccc1[N+](=O)[O-])c1ccccc1` (stereo not given), the Potency was inconclusive [inhibitor, partial curve]. For `CC1CC(NC(=O)c2cc3c(=O)n4ccccc4nc3n2C)CC(C)(C)C1` (stereo not given), the Potency was active: 11.7 µM. For `O=C(Nc1c(C(=O)NCc2ccco2)cnn1-c1ccccc1)c1cccc(F)c1`, the Potency was “inactive”. In the case of `N#Cc1cccc(NS(=O)(=O)c2ccccc2Cl)c1`, the Potency was “inactive”. In the case of `Cc1ccc(-n2c(-c3ccccc3)cc(/C=N/NC(=O)CC#N)c2-c2ccccc2)cc1`, the Potency was inconclusive [inhibitor, single point]. For `O=C(CN1CCOCC1)N/N=C/c1ccc(-c2ccc(C(=O)O)cc2)o1`, the Potency was “inactive”. In the case of `Cc1ccc(NC(=O)/C(=C/c2cccs2)NC(=O)c2ccco2)cc1`, the Potency was inconclusive [inhibitor, partial curve, poor fit]. In the case of `N=c1ccn(Cc2c(Cl)cccc2Cl)cc1`, the Potency was inconclusive [inhibitor, full curve]. For `CC(=O)Oc1ccccc1/C=C/c1nc2ccccc2c(=O)o1`, the Potency was active: 1.47 µM. In the case of `O=[N+]([O-])c1ccc(CSc2nc3ncc(Br)cc3[nH]2)cc1`, the Potency was inconclusive [inhibitor, single point]. In the case of `COc1cccc(C(C(=O)NC(C)(C)C)N(C(=O)CCC(=O)Nc2cc(C)on2)c2ccc3c(c2)OCCO3)c1OC` (stereo not given), the Potency was inconclusive [inhibitor, single point]. With `O=C(CC1Oc2ccccc2NC1=O)NCCCN1CCOCC1` (stereo not given) the Potency was inconclusive [inhibitor, full curve, poor fit]. For `CCOC(=O)c1[nH]c2ccc(Br)cc2c1NC(=O)CCN1CCCC(C)C1` (stereo not given), the Potency was inconclusive [inhibitor, single point]. For `Cc1cc(Nc2ccc3ccccc3c2)n2ncnc2n1`, the Potency was active: 0.131 µM. For `Cc1nc2ccccn2c1C(=O)CSc1ccccc1`, the Potency was “inactive”. For `CCCNC(=O)c1ccc(CN2CCc3ccccc3C2)cc1`, the Potency was active: 10.4 µM. In the case of `CCCCNC(=O)Cc1coc2ccc3ccccc3c12`, the Potency was “inactive”. With `COc1cc(NC2c3ccccc3C(=O)N2c2ccc(C)cn2)cc(OC)c1OC` (stereo not given) the Potency was inconclusive [inhibitor, single point]. For `O=C(CN1C(=O)c2ccccc2S1(=O)=O)c1ccc(O)c(O)c1`, the Potency was inconclusive [inhibitor, single point]. For `Cc1cc(C)n(-c2ccc(Cl)c(C(=O)Nc3ccc(-c4nnc5n4CCCCC5)cc3)n2)n1`, the Potency was inconclusive [inhibitor, partial curve]. In the case of `O=C(NC(=S)Nc1ccccc1)C1CCCCC1`, the Potency was inconclusive [inhibitor, partial curve]. For `CCN1C(=O)C(C(=O)NC(C)c2ccccc2)C2CC1(C)Oc1ccccc12` (stereo not given), the Potency was inconclusive [inhibitor, partial curve]. In the case of `C[C@]12C(=O)N(c3ccc(Br)cc3)C(=O)N1[C@@H]1c3ccccc3OC[C@@H]1[C@H]2c1ccccc1`, the Potency was inconclusive [inhibitor, full curve]. With `O=C(CNc1cc([N+](=O)[O-])ccc1NCCO)Nc1cccc(S(=O)(=O)N2CCCCC2)c1` the Potency was inconclusive [inhibitor, single point]. In the case of `CC(Sc1nc2ccccc2c(=O)n1CC1CCCO1)C(=O)NC(C)c1ccccc1` (stereo not given), the Potency was inconclusive [inhibitor, single point]. In the case of `COC(=O)CN1C(=O)[C@H]2[C@@H](c3ccc(C)o3)N3C(=O)CN(Cc4ccccn4)C(=O)[C@@]3(Cc3ccccc3)[C@H]2C1=O`, the Potency was inconclusive [inhibitor, partial curve]. In the case of `Cc1ccc(-c2nnc3n2N=C(c2ccccc2Br)CS3)cc1`, the Potency was active: 11.7 µM. With `COc1ccc(/C=C/CN2CCC(Oc3ccc(C(=O)N4CCCCC4)cc3)CC2)cc1` the Potency was inconclusive [inhibitor, partial curve, poor fit]. In the case of `COc1ccc(S(=O)(=O)N(C)c2ccc(C(=O)NC3CC3)cc2)cc1`, the Potency was inconclusive [inhibitor, partial curve]. With `Cc1cccc(C(=O)Oc2ccc(/C=N/NC(=O)c3ccc(O)cc3)cc2)c1` the Potency was inconclusive [inhibitor, single point]. In the case of `O=c1c2ccccc2nc(SCc2cn3ccsc3n2)n1-c1ccc(F)cc1`, the Potency was inconclusive [inhibitor, single point]. In the case of `CCOC(=O)C1CCN(S(=O)(=O)c2ccc(-c3ccc(=O)[nH]n3)o2)CC1`, the Potency was inconclusive [inhibitor, partial curve, poor fit]. In the case of `Cc1cc(C(=O)N2CCN(c3ncccn3)CC2)nn1C`, the Potency was “inactive”. With `COc1ccc(NC(C)=O)cc1NC(=O)CN1CCN(CC(=O)Nc2ccc(Cl)cc2)CC1` the Potency was inconclusive [inhibitor, full curve, poor fit]. For `CCOc1ccc(NCc2nnc(SCC(=O)Nc3cc(C)on3)n2-c2ccccc2OC)cc1`, the Potency was inconclusive [inhibitor, single point]. For `O=[N+]([O-])c1ccc(Cl)c(S(=O)(=O)Nc2ccc(-c3ccc(N4CCCC4)nn3)cc2)c1`, the Potency was inconclusive [inhibitor, single point].
